The target of test [1] is T1, GFP-tagged McIdas (GFP-McIdas), expressed in HEK 293T cells (not stated (human or mouse cDNA cloned)) (UniProt D6RGH6).
T1 sequence: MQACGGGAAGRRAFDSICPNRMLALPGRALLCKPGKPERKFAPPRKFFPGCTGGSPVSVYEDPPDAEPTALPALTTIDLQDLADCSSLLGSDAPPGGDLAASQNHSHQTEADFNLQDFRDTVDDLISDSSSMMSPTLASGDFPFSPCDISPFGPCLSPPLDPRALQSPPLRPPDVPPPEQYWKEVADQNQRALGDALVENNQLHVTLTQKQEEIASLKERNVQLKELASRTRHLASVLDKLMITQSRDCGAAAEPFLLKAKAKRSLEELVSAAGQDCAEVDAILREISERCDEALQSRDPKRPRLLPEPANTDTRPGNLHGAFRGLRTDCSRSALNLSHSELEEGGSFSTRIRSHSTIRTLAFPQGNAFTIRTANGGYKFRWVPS
As to the kind of experiment: co-IP; HEK 293T cells co-transfected with GFP-McIdas or GFP alone and HA-STIL or SAS6-SNAP-Flag (tetracycline-dependent promoter); IP with anti-GFP on Protein A agarose.

The target in test [2] is T2, endogenous McIdas (U2OS cells) (human (endogenous in U2OS)) (UniProt D6RGH6).
T2 sequence: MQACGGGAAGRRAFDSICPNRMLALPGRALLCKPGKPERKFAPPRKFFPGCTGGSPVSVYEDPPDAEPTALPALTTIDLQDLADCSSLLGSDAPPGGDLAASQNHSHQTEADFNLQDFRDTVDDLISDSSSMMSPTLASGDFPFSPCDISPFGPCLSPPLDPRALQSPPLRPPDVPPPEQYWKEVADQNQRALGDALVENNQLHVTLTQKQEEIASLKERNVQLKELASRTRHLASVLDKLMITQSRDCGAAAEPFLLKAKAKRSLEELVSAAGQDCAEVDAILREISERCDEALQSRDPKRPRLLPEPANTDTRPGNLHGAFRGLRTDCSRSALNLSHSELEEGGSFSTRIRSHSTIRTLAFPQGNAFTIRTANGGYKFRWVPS
As to the kind of experiment: co-IP; total U2OS cell extracts, endogenous proteins; IP with anti-McIdas antibody, IgG IP as control; western blot. For orientation: A western blot detects proteins with antibodies after separation by electrophoresis.

Test [3] deals with T3, myc-PLK4 (Polo-like kinase 4), tetracycline-inducible in U2OS cells (UniProt O00444).
T3 sequence: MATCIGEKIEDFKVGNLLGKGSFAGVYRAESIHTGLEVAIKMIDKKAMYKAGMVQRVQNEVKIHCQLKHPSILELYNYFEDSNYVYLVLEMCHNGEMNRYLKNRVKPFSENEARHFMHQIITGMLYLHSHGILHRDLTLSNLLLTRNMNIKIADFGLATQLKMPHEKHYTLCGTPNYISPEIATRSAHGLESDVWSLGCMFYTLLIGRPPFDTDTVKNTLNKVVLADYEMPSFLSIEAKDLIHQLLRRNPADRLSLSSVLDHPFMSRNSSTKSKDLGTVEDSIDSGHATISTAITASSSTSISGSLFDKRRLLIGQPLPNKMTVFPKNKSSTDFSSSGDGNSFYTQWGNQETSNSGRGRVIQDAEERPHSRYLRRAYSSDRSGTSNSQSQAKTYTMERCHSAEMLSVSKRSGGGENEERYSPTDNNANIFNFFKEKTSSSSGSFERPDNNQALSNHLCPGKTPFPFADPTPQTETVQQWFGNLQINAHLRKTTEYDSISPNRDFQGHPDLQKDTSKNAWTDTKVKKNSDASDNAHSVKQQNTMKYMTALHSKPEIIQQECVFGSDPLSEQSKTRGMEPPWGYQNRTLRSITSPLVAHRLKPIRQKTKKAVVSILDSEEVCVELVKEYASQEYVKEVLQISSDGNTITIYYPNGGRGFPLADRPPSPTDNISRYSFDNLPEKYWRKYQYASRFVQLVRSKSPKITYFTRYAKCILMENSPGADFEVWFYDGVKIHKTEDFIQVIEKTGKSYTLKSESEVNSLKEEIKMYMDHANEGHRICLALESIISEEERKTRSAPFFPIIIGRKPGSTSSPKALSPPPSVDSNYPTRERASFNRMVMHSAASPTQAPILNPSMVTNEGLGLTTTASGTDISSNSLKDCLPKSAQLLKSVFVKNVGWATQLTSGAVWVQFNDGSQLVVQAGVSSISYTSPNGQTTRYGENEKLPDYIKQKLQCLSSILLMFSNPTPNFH
Put plainly: co-IP; U2OS cells with tetracycline-induced myc-PLK4, transfected with GFP-McIdas or GFP alone; IP with anti-myc on Protein A agarose; same lysis buffer.

Results are given in words; binding and its absence hold for the method and conditions named. Binding seen in cells or lysates may run through a third protein. Some results given as binding are weak or reduced against the parent protein; the word gives no strength. For some of these results: Where a sequence is shown, tags or fusion partners need not be part of it.

B1: HA-STIL (SCL/TAL1 interrupting locus protein) (protein, UniProt Q15468 1-1287)
chain: MEPIYPFARPQMNTRFPSSRMVPFHFPPSKCALWNPTPTGDFIYLHLSYYRNPKLVVTEKTIRLAYRHAKQNKKNSSCFLLGSLTADEDEEGVTLTVDRFDPGREVPECLEITPTASLPGDFLIPCKVHTQELCSREMIVHSVDDFSSALKALQCHICSKDSLDCGKLLSLRVHITSRESLDSVEFDLHWAAVTLANNFKCTPVKPIPIIPTALARNLSSNLNISQVQGTYKYGYLTMDETRKLLLLLESDPKVYSLPLVGIWLSGITHIYSPQVWACCLRYIFNSSVQERVFSESGNFIIVLYSMTHKEPEFYECFPCDGKIPDFRFQLLTSKETLHLFKNVEPPDKNPIRCELSAESQNAETEFFSKASKNFSIKRSSQKLSSGKMPIHDHDSGVEDEDFSPRPIPSPHPVSQKISKIQPSVPELSLVLDGNFIESNPLPTPLEMVNNENPPLINHLEHLKPLQPQLYDEKHSPEVEAGEPSLRGIPNQLNQDKPALLRHCKVRQPPAYKKGNPHTRNSIKPSSHNGPSHDIFEKLQTVSAGNVQNEEYPIRPSTLNSRQSSLAPQSQPHDFVFSPHNSGRPMELQIPTPPLPSYCSTNVCRCCQHHSHIQYSPLNSWQGANTVGSIQDVQSEALQKHSLFHPSGCPALYCNAFCSSSSPIALRPQGDMGSCSPHSNIEPSPVARPPSHMDLCNPQPCTVCMHTPKTESDNGMMGLSPDAYRFLTEQDRQLRLLQAQIQRLLEAQSLMPCSPKTTAVEDTVQAGRQMELVSVEAQSSPGLHMRKGVSIAVSTGASLFWNAAGEDQEPDSQMKQDDTKISSEDMNFSVDINNEVTSLPGSASSLKAVDIPSFEESNIAVEEEFNQPLSVSNSSLVVRKEPDVPVFFPSGQLAESVSMCLQTGPTGGASNNSETSEEPKIEHVMQPLLHQPSDNQKIYQDLLGQVNHLLNSSSKETEQPSTKAVIISHECTRTQNVYHTKKKTHHSRLVDKDCVLNATLKQLRSLGVKIDSPTKVKKNAHNVDHASVLACISPEAVISGLNCMSFANVGMSGLSPNGVDLSMEANAIALKYLNENQLSQLSVTRSNQNNCDPFSLLHINTDRSTVGLSLISPNNMSFATKKYMKRYGLLQSSDNSEDEEEPPDNADSKSEYLLNQNLRSIPEQLGGQKEPSKNDHEIINCSNCESVGTNADTPVLRNITNEVLQTKAKQQLTEKPAFLVKNLKPSPAVNLRTGKAEFTQHPEKENEGDITIFPESLQPSETLKQMNSMNSVGTFLDVKRLRQLPKLF
For B1, in test [1], the binding entry was “no binding”.

B2: endogenous PLK4 (U2OS cells) (enzyme, UniProt O00444 1-970)
chain: MATCIGEKIEDFKVGNLLGKGSFAGVYRAESIHTGLEVAIKMIDKKAMYKAGMVQRVQNEVKIHCQLKHPSILELYNYFEDSNYVYLVLEMCHNGEMNRYLKNRVKPFSENEARHFMHQIITGMLYLHSHGILHRDLTLSNLLLTRNMNIKIADFGLATQLKMPHEKHYTLCGTPNYISPEIATRSAHGLESDVWSLGCMFYTLLIGRPPFDTDTVKNTLNKVVLADYEMPSFLSIEAKDLIHQLLRRNPADRLSLSSVLDHPFMSRNSSTKSKDLGTVEDSIDSGHATISTAITASSSTSISGSLFDKRRLLIGQPLPNKMTVFPKNKSSTDFSSSGDGNSFYTQWGNQETSNSGRGRVIQDAEERPHSRYLRRAYSSDRSGTSNSQSQAKTYTMERCHSAEMLSVSKRSGGGENEERYSPTDNNANIFNFFKEKTSSSSGSFERPDNNQALSNHLCPGKTPFPFADPTPQTETVQQWFGNLQINAHLRKTTEYDSISPNRDFQGHPDLQKDTSKNAWTDTKVKKNSDASDNAHSVKQQNTMKYMTALHSKPEIIQQECVFGSDPLSEQSKTRGMEPPWGYQNRTLRSITSPLVAHRLKPIRQKTKKAVVSILDSEEVCVELVKEYASQEYVKEVLQISSDGNTITIYYPNGGRGFPLADRPPSPTDNISRYSFDNLPEKYWRKYQYASRFVQLVRSKSPKITYFTRYAKCILMENSPGADFEVWFYDGVKIHKTEDFIQVIEKTGKSYTLKSESEVNSLKEEIKMYMDHANEGHRICLALESIISEEERKTRSAPFFPIIIGRKPGSTSSPKALSPPPSVDSNYPTRERASFNRMVMHSAASPTQAPILNPSMVTNEGLGLTTTASGTDISSNSLKDCLPKSAQLLKSVFVKNVGWATQLTSGAVWVQFNDGSQLVVQAGVSSISYTSPNGQTTRYGENEKLPDYIKQKLQCLSSILLMFSNPTPNFH
In the case of B2, the binding entry in test [2] is reported as “binds”.

B3: HsSAS6-SNAP-FLAG (protein, UniProt Q6UVJ0 1-657)
chain: MSQVLFHQLVPLQVKCKDCEERRVSIRMSIELQSVSNPVHRKDLVIRLTDDTDPFFLYNLVISEEDFQSLKFQQGLLVDFLAFPQKFIDLLQQCTQEHAKEIPRFLLQLVSPAAILDNSPAFLNVVETNPFKHLTHLSLKLLPGNDVEIKKFLAGCLKCSKEEKLSLMQSLDDATKQLDFTRKTLAEKKQELDKLRNEWASHTAALTNKHSQELTNEKEKALQAQVQYQQQHEQQKKDLEILHQQNIHQLQNRLSELEAANKDLTERKYKGDSTIRELKAKLSGVEEELQRTKQEVLSLRRENSTLDVECHEKEKHVNQLQTKVAVLEQEIKDKDQLVLRTKEAFDTIQEQKVVLEENGEKNQVQLGKLEATIKSLSAELLKANEIIKKLQGDLKTLMGKLKLKNTVTIQQEKLLAEKEEKLQKEQKELQDVGQSLRIKEQEVCKLQEQLEATVKKLEESKQLLKNNEKLITWLNKELNENQLVRKQDVLGPSTTPPAHSSSNTIRSGISPNLNVVDGRLTYPTCGIGYPVSSAFAFQNTFPHSISAKNTSHPGSGTKVQFNLQFTKPNASLGDVQSGATISMPCSTDKENGENVGLESKYLKKREDSIPLRGLSQNLFSNSDHQRDGTLGALHTSSKPTALPSASSAYFPGQLPNS
In the case of B3, the binding result in test [1] is “no binding”.

B4: GFP-tagged McIdas (GFP-McIdas WT), expressed in U2OS myc-PLK4 cells (protein, UniProt D6RGH6 1-385)
chain: MQACGGGAAGRRAFDSICPNRMLALPGRALLCKPGKPERKFAPPRKFFPGCTGGSPVSVYEDPPDAEPTALPALTTIDLQDLADCSSLLGSDAPPGGDLAASQNHSHQTEADFNLQDFRDTVDDLISDSSSMMSPTLASGDFPFSPCDISPFGPCLSPPLDPRALQSPPLRPPDVPPPEQYWKEVADQNQRALGDALVENNQLHVTLTQKQEEIASLKERNVQLKELASRTRHLASVLDKLMITQSRDCGAAAEPFLLKAKAKRSLEELVSAAGQDCAEVDAILREISERCDEALQSRDPKRPRLLPEPANTDTRPGNLHGAFRGLRTDCSRSALNLSHSELEEGGSFSTRIRSHSTIRTLAFPQGNAFTIRTANGGYKFRWVPS
Regarding B4, the binding entry in test [3] is reported as “binds”.

The values above are taken from paper PMC13022133.
